Measured values published in paper PMC5700166.
The entries are a selection whose mix differs from that of the whole data set. The list includes weakly bound sequences.

Columns and labels:
Experiment in all cases: protein-binding microarray (PBM)
Conditions in all cases: PBM: ~300 nM protein, 6 mM HEPES pH 7.8, 80 mM KCl, 0.5 mM EDTA, 0.5 mM EGTA, 6% glycerol, 35 ng/ul poly-dIdC, 1% milk, 1 h, room temperature; Ap Aiptasia and Nv Nematostella (sea anemones) / Co Capsaspora / Aq Amphimedon (sponge) / Dm Drosophila / Hu human; RHD is the Rel homology domain; high values mean tight binding; most listed sequences are background and not binding sites; double strand, one strand shown
GST-Ap-NF-kB RHD = target: T1, GST-Ap-NF-kB RHD (UniProt A0A913YAJ5)
T1 sequence: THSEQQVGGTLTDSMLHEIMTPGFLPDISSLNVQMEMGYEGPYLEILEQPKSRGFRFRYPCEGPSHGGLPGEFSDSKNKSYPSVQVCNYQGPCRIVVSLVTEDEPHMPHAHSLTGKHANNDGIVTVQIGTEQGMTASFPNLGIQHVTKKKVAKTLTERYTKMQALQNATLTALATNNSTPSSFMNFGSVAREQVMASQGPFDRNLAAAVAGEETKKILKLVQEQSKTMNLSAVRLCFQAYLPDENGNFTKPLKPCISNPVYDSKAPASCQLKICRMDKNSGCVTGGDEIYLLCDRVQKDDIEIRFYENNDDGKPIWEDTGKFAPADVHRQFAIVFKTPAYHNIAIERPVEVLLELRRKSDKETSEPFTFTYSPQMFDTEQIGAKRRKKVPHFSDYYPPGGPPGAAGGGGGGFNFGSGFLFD

[1] = target: T2, GST-Nv-NF-kB (Cys allele) (UniProt E5G601)
T2 sequence: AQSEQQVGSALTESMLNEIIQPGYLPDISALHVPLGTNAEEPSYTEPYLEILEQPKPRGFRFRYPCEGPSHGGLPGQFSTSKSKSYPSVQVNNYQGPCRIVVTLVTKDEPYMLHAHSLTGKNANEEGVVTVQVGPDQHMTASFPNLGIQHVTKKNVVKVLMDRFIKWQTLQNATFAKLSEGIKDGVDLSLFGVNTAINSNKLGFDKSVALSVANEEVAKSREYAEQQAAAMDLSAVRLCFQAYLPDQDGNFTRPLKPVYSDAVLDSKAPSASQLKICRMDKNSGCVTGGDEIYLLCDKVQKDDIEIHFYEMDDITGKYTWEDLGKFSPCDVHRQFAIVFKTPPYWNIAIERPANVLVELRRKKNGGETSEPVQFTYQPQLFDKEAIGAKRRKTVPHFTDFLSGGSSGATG

GST-Aq-NF-kB = target: T3, GST-Aq-NF-kB (UniProt A9Y5G7)
T3 sequence: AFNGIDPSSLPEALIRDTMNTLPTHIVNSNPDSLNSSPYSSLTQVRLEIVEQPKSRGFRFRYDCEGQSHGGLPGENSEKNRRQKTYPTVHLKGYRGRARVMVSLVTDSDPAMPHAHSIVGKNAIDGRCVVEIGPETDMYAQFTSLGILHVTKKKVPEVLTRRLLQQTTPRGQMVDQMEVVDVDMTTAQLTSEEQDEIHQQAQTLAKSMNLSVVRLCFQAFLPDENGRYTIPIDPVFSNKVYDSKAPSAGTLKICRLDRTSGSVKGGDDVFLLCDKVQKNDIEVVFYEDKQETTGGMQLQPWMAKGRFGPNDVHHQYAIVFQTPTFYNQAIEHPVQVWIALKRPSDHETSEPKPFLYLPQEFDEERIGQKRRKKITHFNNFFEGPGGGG

GST-Co-NF-kB = target: T4, GST-Co-NF-kB (UniProt F1ARL5)
T4 sequence: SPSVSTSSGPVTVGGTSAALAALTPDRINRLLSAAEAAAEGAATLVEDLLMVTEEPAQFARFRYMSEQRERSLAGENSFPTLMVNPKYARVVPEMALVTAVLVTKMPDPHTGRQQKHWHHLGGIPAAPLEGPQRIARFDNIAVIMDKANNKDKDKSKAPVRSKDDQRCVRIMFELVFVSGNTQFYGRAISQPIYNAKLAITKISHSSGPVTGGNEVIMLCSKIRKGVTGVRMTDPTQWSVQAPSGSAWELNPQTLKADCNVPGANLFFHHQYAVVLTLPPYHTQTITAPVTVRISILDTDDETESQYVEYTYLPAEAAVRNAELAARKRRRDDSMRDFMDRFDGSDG

Sequence	binding signal (GST-Ap-NF-kB RHD) [z-score]	binding signal [1] [z-score]	binding signal (GST-Aq-NF-kB) [z-score]	binding signal (GST-Co-NF-kB) [z-score]
CCGATTAACATCAGGATTTCCCCTGATGTTAATCGGGTCTTGATTCGCTTGACGCTGCTG	10	11.1	9.68	–
CCGATTAACATCAAATTCCCCCTTGATGTTAATCGGGTCTTGATTCGCTTGACGCTGCTG	9.34	10.3	8.5	–
CCGATTAACATCACGGAGTCCCCTGATGTTAATCGGGTCTTGATTCGCTTGACGCTGCTG	6.33	4.74	4.65	2.46
CCGATTAACATCAGGGGAGACCCTGATGTTAATCGGGTCTTGATTCGCTTGACGCTGCTG	6.47	4.51	6.37	–
CCGATTAACATCAAATAATTTCCTGATGTTAATCGGGTCTTGATTCGCTTGACGCTGCTG	0.237	0.554	0.873	0.724
CCGATTAACATCAAAAATACCCTTGATGTTAATCGGGTCTTGATTCGCTTGACGCTGCTG	5.7	9.05	7.5	–
CCGATTAACATCAATTATTCCCCTGATGTTAATCGGGTCTTGATTCGCTTGACGCTGCTG	6.67	9.08	5.63	–
CCGATTAACATCAAGTAAATTCCTGATGTTAATCGGGTCTTGATTCGCTTGACGCTGCTG	-0.159	0.631	1.35	0.285
CCGATTAACATCAGGAAAAACACTGATGTTAATCGGGTCTTGATTCGCTTGACGCTGCTG	-0.348	0.431	0.798	0.781
CCGATTAACATCAGTGGTACTTGTGATGTTAATCGGGTCTTGATTCGCTTGACGCTGCTG	0.591	0.241	0.0921	0.414
CCGATTAACATCAGAAAGTTTCCTGATGTTAATCGGGTCTTGATTCGCTTGACGCTGCTG	-0.162	0.528	1.06	-0.389
CCGATTAACATCAAGTTTTTTCCTGATGTTAATCGGGTCTTGATTCGCTTGACGCTGCTG	-0.186	0.696	0.43	0.462
CCGATTAACATCAGAAAAATTCCTGATGTTAATCGGGTCTTGATTCGCTTGACGCTGCTG	-0.0948	0.278	2.21	-0.531
CCGATTAACATCAGAATTCCCCCTGATGTTAATCGGGTCTTGATTCGCTTGACGCTGCTG	10.1	11.8	8.47	10.8
CCGATTAACATCAAAATTTACCATGATGTTAATCGGGTCTTGATTCGCTTGACGCTGCTG	0.443	0.863	1.07	0.206
CCGATTAACATCAAGAAATCCCCTGATGTTAATCGGGTCTTGATTCGCTTGACGCTGCTG	9.62	11.5	7.7	4.27
CCGATTAACATCAGGAAAGAACATGATGTTAATCGGGTCTTGATTCGCTTGACGCTGCTG	-0.579	0.334	0.175	-0.319
CCGATTAACATCACCATTATAGGTGATGTTAATCGGGTCTTGATTCGCTTGACGCTGCTG	-0.449	0.378	0.294	-0.378
CCGATTAACATCAGGAAAATCACTGATGTTAATCGGGTCTTGATTCGCTTGACGCTGCTG	-0.257	-0.689	0.492	0.253
CCGATTAACATCAGGAAATCACATGATGTTAATCGGGTCTTGATTCGCTTGACGCTGCTG	-0.0739	0.214	0.484	0.266
CCGATTAACATCACCGAAATTCCTGATGTTAATCGGGTCTTGATTCGCTTGACGCTGCTG	0.423	0.68	0.961	0.522
CCGATTAACATCACCGCAGCATGTGATGTTAATCGGGTCTTGATTCGCTTGACGCTGCTG	0.261	0.311	0.016	-0.299
CCGATTAACATCAGGAAATAACATGATGTTAATCGGGTCTTGATTCGCTTGACGCTGCTG	-0.389	-0.237	0.601	0.707
CCGATTAACATCACCCATTTCCGTGATGTTAATCGGGTCTTGATTCGCTTGACGCTGCTG	0.71	0.594	0.492	1.41
CCGATTAACATCACGTTTTTTCCTGATGTTAATCGGGTCTTGATTCGCTTGACGCTGCTG	-0.0412	0.0997	0.789	0.997
CCGATTAACATCAGCGGAATTCCTGATGTTAATCGGGTCTTGATTCGCTTGACGCTGCTG	1.33	0.934	1.89	0.0469
CCGATTAACATCACAAAAATTCCTGATGTTAATCGGGTCTTGATTCGCTTGACGCTGCTG	-0.11	0.54	1.5	0.621
CCGATTAACATCAGGAAAATTTATGATGTTAATCGGGTCTTGATTCGCTTGACGCTGCTG	-0.237	0.0555	1.26	0.863
CCGATTAACATCAAAATTCCCCCTGATGTTAATCGGGTCTTGATTCGCTTGACGCTGCTG	10.1	11.6	9.32	11.3
CCGATTAACATCAGAAAATTCCATGATGTTAATCGGGTCTTGATTCGCTTGACGCTGCTG	0.107	-0.348	1.51	0.498
